# From the supplement of paper PMC3334620
# Whole data set: some 33,000 sequences, median “E-score (-0.5 to 0.5)” near -0.035, cut for the highest 2% near 0.34. Some of the results follow.
# Molecular target: T1, Mot3 (UniProt P54785)
# T1 sequence: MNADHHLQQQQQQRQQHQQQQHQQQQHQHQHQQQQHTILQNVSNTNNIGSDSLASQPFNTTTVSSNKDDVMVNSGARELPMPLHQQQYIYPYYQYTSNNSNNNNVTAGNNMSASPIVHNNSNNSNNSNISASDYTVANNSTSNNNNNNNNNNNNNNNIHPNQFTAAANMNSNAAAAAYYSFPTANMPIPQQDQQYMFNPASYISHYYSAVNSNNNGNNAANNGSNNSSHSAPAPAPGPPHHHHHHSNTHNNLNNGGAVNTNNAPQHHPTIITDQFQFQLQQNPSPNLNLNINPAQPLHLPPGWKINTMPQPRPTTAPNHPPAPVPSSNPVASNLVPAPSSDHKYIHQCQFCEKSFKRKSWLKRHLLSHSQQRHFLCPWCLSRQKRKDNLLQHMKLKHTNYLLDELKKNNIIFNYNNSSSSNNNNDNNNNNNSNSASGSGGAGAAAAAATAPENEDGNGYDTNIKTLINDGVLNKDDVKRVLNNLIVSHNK
# Assay: PBM E-score (8-mer binding enrichment) (E-score (-0.5 to 0.5)); higher = stronger / more preferred TF binding; most listed sequences are background and not binding sites
# Settings: protein concentration: 200 nM; construct: GST-full length
# Procedure, shortened: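 E-scores (a modified Wilcoxon-Mann-Whitney statistic) were assigned by the Universal PBM Analysis Suite to every ungapped eight-base word pooled with its reverse complement. The input came from universal all-10-mer Agilent arrays made double-stranded by primer extension and probed with GST-tagged yeast transcription factors at about 100-200 nM. Fluorescent anti-GST detected bound protein, and masliner normalised the scans.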
row,Sequence,PBM E-score
1,CGCAGCAA,-0.18
2,AAATTGCT,-0.0187
3,ATCTGAAG,-0.201
4,AATCGTTC,-0.076
5,CCTGGGTC,-0.0668
6,AGTTGATG,0.189
7,AAGTACAG,-0.0233
8,TGTCTAAA,0.295
9,CGTCCAAG,-0.303
10,ATCTTATC,0.0474
11,GGGCGCTA,-0.168
12,ATCCCAAG,-0.243
13,ACCCACAC,-0.0586
14,GAGGGCGC,-0.165
15,GGAGAGCA,-0.0284
16,CATAGATG,0.0346
17,GGAAGGAC,-0.122
18,GAGTTAAA,0.153
19,GACGCAGA,-0.116
20,TCAACACA,0.353
21,AGTCCAAT,-0.0678
22,CTCAATAA,-0.0988
23,CTCCTCAC,-0.136
24,GTAGTCCA,-0.115
25,AAAGGGTC,0.023

row,Sequence,PBM E-score
1,AGGGCACG,0.285
2,GCTATCGA,-0.138
3,GCGCGGCA,-0.0979
4,TACCGTAA,0.11
5,ATAGTCCC,-0.234
6,ATCCGGAA,-0.219
7,AACGACAC,0.0877
8,ACATGGAT,0.294
9,AACTGCGT,0.0413
10,AAAATTAT,0.216
11,CATCTTTA,0.118
12,ACCCTCTA,0.0362
13,ATCTTCAT,-0.0494
14,GATGAACA,0.14
15,CTTGTTTC,0.136
16,CAAGCGAC,-0.0636
17,ACTCATAG,-0.118
18,GCTTAGCA,-0.064
19,CCTCGGAA,-0.137
20,CCTCGTGC,0.016
21,GCACTAGA,-0.177
22,AACGATAG,0.119
23,ATACGTTA,0.158
24,CTAGCCCC,-0.222
25,ATCAGAGC,-0.212

row,Sequence,PBM E-score
1,CTATGGAA,-0.0756
2,CTGGAAAG,-0.158
3,ACATATCA,0.124
4,CGAGTGGC,-0.194
5,CTTCCGCA,-0.179
6,CACAATAC,0.125
7,ACGTCGTC,-0.00298
8,AGCCAAAA,0.0655
9,AGTTCGTA,0.195
10,TGCGTCCA,-0.281
11,CTTGGTTC,0.0572
12,CAAACATG,0.258
13,ACCTTGGC,-0.101
14,TTAACCAA,0.0506
15,GAAACGCA,-0.0449
16,CTCAGGGC,-0.29
17,CTGCCTCC,-0.215
18,CACAGAAA,0.195
19,CCCAAGTC,-0.284
20,GACTATGA,-0.191
21,CGGCATAA,-0.11
22,CCTCTCAC,-0.155
23,CGTTGTGA,-0.0244
24,AAAGGGGC,0.0724
25,TCCCTACA,0.0641

row,Sequence,PBM E-score
1,AAGCCGGG,-0.253
2,GTAGGAAC,0.457
3,GAATACCA,-0.0952
4,GCGACCAA,-0.138
5,CGCGTAAA,0.392
6,AACGGCAA,0.0287
7,CTAGGGCA,-0.249
8,AGTCTCGC,-0.221
9,AAAGCCTA,0.261
10,TCTCTTCA,-0.164
11,CTCCCCAG,-0.168
12,ATGTGTTA,0.316
13,TAGGTGAA,-0.0094
14,ACCCTAAG,-0.157
15,CATTCATA,0.0769
16,CTTGGTGC,-0.0843
17,CCCGGTAC,-0.171
18,CCTGCACA,0.161
19,ATGCATAA,0.182
20,ATGCATCC,-0.14
21,GAATCCTA,-0.0702
22,CACACATA,0.0979
23,CAGTACTC,-0.249
24,AACGGTGT,-0.0428
25,GCAGTGAA,0.114

row,Sequence,PBM E-score
1,CTGTGCAA,0.00342
2,CCGTGACC,-0.314
3,AACTAATG,0.15
4,ACCATTAA,0.0184
5,ATTCCTTA,0.211
6,AACCCAGA,-0.103
7,TACGTCAA,0.219
8,CCTGAGCG,-0.161
9,ATACCAAT,-0.041
10,AATTTGCC,0.245
11,CTTCGACC,-0.0959
12,TATTCTCA,-0.00287
13,AAATACGG,0.126
14,CAATGCCG,-0.0723
15,GATTAGCC,-0.0635
16,GAAGGCTC,0.291
17,CTGACGCA,-0.28
18,CCACCGTA,-0.223
19,AGGCTCTC,0.18
20,CCCTAGTC,-0.163
21,CAGCACGG,-0.0516
22,ACGAGTAG,0.00341
23,AACTTATA,0.122
24,ATCAGCGG,-0.307
25,CTAAGAAC,0.00066

row,Sequence,PBM E-score
1,TCTTCGAA,-0.0401
2,CACATGAA,0.185
3,ATAAGAAC,0.0775
4,ATCCCACC,-0.0974
5,CGCATTTA,0.0598
6,CCCAGAGG,-0.301
7,AGACCGCC,-0.0853
8,CCCGGACG,-0.269
9,ATCACCAA,-0.167
10,ATATCCCG,-0.125
11,ATCCGAAG,-0.199
12,AGGCGCAA,0.136
13,TTCCGCAA,-0.236
14,CTTATTGC,-0.0605
15,AAGTATGT,0.18
16,CAGGCGCA,0.299
17,AGAACGTG,0.146
18,AATAACAT,0.349
19,AACTTCGA,0.0212
20,CTCAGATA,-0.0831
21,TAGGGTCA,-0.0851
22,ACATCGAC,0.00335
23,AATTTACT,0.174
24,CAACCTTG,0.128
25,CGGTGGGC,-0.107

row,Sequence,PBM E-score
1,AGCAGTGC,-0.105
2,TAGGCGGA,-0.0561
3,TTGCGCAA,0.015
4,GTAACATA,0.26
5,GTTTGCTA,0.0249
6,CCACTATC,-0.259
7,TTAACGAA,0.128
8,GAACTTAA,0.0502
9,CTTCCGCC,-0.22
10,ATCATTGA,0.0882
11,ATGAGAGC,-0.0809
12,GTATGACA,0.144
13,GGTTCCGA,-0.286
14,GAACCCTC,-0.176
15,CATAGTAC,0.0345
16,GTACCCAC,0.0626
17,CGAACTAG,-0.0758
18,CGTCTATC,-0.00811
19,CAGTTTCA,-0.0919
20,CTTGTAGA,0.215
21,GCGAACTA,-0.0334
22,ACCATCAC,-0.0576
